# Reference: the supplement of paper PMC3334620
# In all, about 33,000 sequences were measured (“E-score (-0.5 to 0.5)”: median about -0.017, highest 2% from about 0.3 on). The list shows a part of the results.
# Target: T1, Sut1 (UniProt P53032)
# T1 sequence: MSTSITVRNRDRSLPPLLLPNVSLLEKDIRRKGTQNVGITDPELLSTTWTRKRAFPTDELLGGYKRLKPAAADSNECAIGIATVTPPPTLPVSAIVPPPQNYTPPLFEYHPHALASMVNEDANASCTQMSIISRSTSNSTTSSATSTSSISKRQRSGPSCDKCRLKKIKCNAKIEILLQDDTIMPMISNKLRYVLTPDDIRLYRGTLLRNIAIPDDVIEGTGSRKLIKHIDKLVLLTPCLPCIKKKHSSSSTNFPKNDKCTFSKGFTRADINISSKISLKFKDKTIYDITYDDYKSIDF
# Assay: PBM E-score (8-mer binding enrichment) (E-score (-0.5 to 0.5)); higher = stronger / more preferred TF binding; most listed sequences are background and not binding sites
# Conditions: protein concentration: 200 nM; construct: GST-full length
# Outline: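 E-scores (a modified Wilcoxon-Mann-Whitney statistic) were assigned by the Universal PBM Analysis Suite to every ungapped eight-base word pooled with its reverse complement. The input came from universal all-10-mer Agilent arrays made double-stranded by primer extension and probed with GST-tagged yeast transcription factors at about 100-200 nM. Fluorescent anti-GST detected bound protein, and masliner normalised the scans.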
row,Sequence,PBM E-score
1,GCTGAGCC,-0.251
2,CATGCGAG,-0.0901
3,ATCGAAGC,-0.184
4,ACAGGGAT,-0.154
5,CACACCGA,0.013
6,ACATAACT,0.108
7,GGTTGACA,-0.0731
8,CAGGTAAA,0.177
9,CTAGCGAA,-0.211
10,AGATGAAA,0.0508
11,CGGCCTAA,0.0562
12,GGCGAGCC,-0.157
13,CGGTAACG,-0.0305
14,CAGACGCA,-0.179
15,CATCGATC,-0.0988
16,GATGGGAA,-0.204
17,CCTGAAGG,-0.351
18,GCACAAAC,-0.0612
19,CCCCAACA,-0.141
20,AGGTTAAG,-0.142
21,CGCCCCGA,7e-05
22,AGTGCCGC,-0.159
23,CCAGTCGC,-0.123
24,ACCTACGA,0.00986
25,CACTGATA,-0.0756

row,Sequence,PBM E-score
1,CCTCAGAA,-0.266
2,CAGGCCTA,-0.108
3,CGTAAGGA,-0.162
4,AGTTCCAG,-0.0562
5,GTGACGTA,-0.0724
6,AGAGTTCG,0.162
7,CCTCTCCC,-0.32
8,ATCGATGA,0.026
9,ATCTCCAG,-0.0734
10,CGTATGAG,-0.00806
11,ATCTGTGA,0.022
12,AAAGCACC,-0.116
13,AAAATCTG,0.141
14,TAGTAGCA,-0.0134
15,CGCTTCCC,-0.302
16,CCGCGGCA,0.15
17,AGCTTGAG,-0.133
18,CAACCATG,-0.0632
19,GTGGCTCA,-0.303
20,TAATGCTA,0.176
21,ACAGTCCA,0.0821
22,CAAGTCAA,-0.0854
23,ACAAGAGG,0.0752
24,GGTTCCTA,0.00116
25,GATGGGCA,-0.0816

row,Sequence,PBM E-score
1,AAACGCCA,0.0327
2,ATAGGACC,-0.187
3,AATATGGT,0.136
4,AACGTCAA,0.0659
5,CTTGTGAA,0.166
6,AAGGTGCA,-0.0501
7,CGTAGTCC,0.0807
8,AAGGAAAG,-0.0232
9,CCCTTATA,0.0264
10,AACGGGGC,0.00893
11,CTCAAGTC,0.00407
12,GATTGATA,0.158
13,AGATTCGA,0.135
14,AAAGACCT,-0.175
15,AGTAGCCA,-0.0389
16,ATTTTCTC,0.155
17,CTGATAGA,0.0448
18,CATGCTGC,-0.276
19,TTATTAAA,0.273
20,CTCATGCA,-0.0944
21,GGCATGCC,0.073
22,GGTTCTAC,0.019
23,GTCGACTA,0.165
24,CTTGCTCC,0.0671
25,CTCTATCC,-0.0171

row,Sequence,PBM E-score
1,GCTCAAAA,0.166
2,AATTCAAG,0.141
3,ACTTGGGA,0.0387
4,ATAAGATG,0.112
5,CATATGTC,-0.0849
6,ATACCACC,-0.077
7,CATGCTAG,-0.118
8,TGCAACAA,0.0343
9,GGCTCACC,-0.291
10,GTATTAGA,0.155
11,GCGGAGCC,0.113
12,CGGTGGTC,0.095
13,AGCCAGGA,-0.265
14,ACATTCAT,0.214
15,CACTCTAC,-0.0207
16,ACCAGCAG,-0.384
17,TCAAACCA,0.162
18,ATCGGGCA,-0.195
19,AAACGACC,0.0665
20,AAACCTCA,0.11
21,ATTGTGGC,0.0109
22,ACACAGGA,0.0378
23,GCATGAGC,-0.208
24,CGTCCAGC,-0.17
25,CCGTAGTC,0.0599

row,Sequence,PBM E-score
1,GAGGACGC,-0.145
2,GAGCTGGC,-0.219
3,GAATGAGC,-0.0518
4,TGTCGCAA,0.0597
5,AACCCTAG,-0.0936
6,CACGGACC,0.184
7,GTCCGATA,0.362
8,AAAACAGC,0.249
9,ACGGAGTC,0.46
10,AGTATCCG,0.188
11,ATATCCGA,0.294
12,CACCCCCC,-0.355
13,CCCCGGTA,0.0227
14,CCCTGGGC,-0.324
15,AGGTACTA,0.124
16,CAAACTTC,0.18
17,TCGAGACA,-0.0741
18,CCCCCCCC,-0.484
19,CCGGGGCC,-0.0306
20,CGCGGAGA,0.387
21,CTGCTACA,0.0132
22,AAATGACA,0.0563
23,ATTCCTGA,-0.132
24,TCGACTAA,-0.0425
25,CCGTGTCA,0.11

row,Sequence,PBM E-score
1,CAAGGAGC,-0.107
2,CCCACAAG,-0.222
3,AAGGATCG,0.00938
4,ACCTATCC,0.00738
5,AATTAATG,0.273
6,CATGACTA,-0.15
7,AAATTTTC,0.145
8,CCTGTTCA,-0.193
9,CACTTAGC,-0.173
10,ACTTGTGG,-0.0684
11,CAACGCAC,-0.0583
12,ATAATAGC,-0.032
13,CTAGTCTC,-0.0418
14,TACACGTA,0.0499
15,CCCTACAC,-0.0611
16,CGTCATCA,-0.0636
17,AATGAGGT,0.171
18,CTGTGAGC,-0.15
19,GGAGGATA,-0.00419
20,ATCTCGAA,0.0769
21,ATTTCTGG,0.0933
22,AGCAGGCC,-0.101
23,AATAGTCA,0.102
24,CTACGCTA,-0.154
25,AACGTCTC,0.017

row,Sequence,PBM E-score
1,TGAGGGAA,-0.158
2,ATTTAAGG,0.141
3,AATCATGG,-0.029
4,AACGAGCA,-0.173
5,ATCCTATG,0.0966
6,ATCTCCGG,0.478
7,ATTAATAA,0.265
8,GCTCCAAA,-0.057
9,CATGGTAC,0.00112
10,GGATGGGA,-0.12
11,AGGTCCTA,-0.154
12,GCTTGGTA,-0.108
13,CTGATCAC,-0.0813
14,AAGAACGA,0.094
15,CACTTCTA,-0.0188
16,ACGTCAGG,-0.253
17,TCGGTACA,-0.151
18,CGCACTTA,0.0354
19,AAAGGCTG,-0.136
20,CATCGGGG,-0.00411
21,AAAAGCCA,0.238
22,CCCGTGAG,-0.0708
